Assay results taken from PubChem BioAssay (NCI).
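Tested at 5 concentrations; 48 h exposure; 96-well plates; endpoints linearly interpolated, else capped at highest concentration. Here, GI50 denotes the concentration required for 50% inhibition of growth. TGI: concentration producing complete growth inhibition.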

What follows are compounds tested on NCI-H322M lung (assay: growth of human tumour cells (NCI), 48 h).

Compound	TGI [µM]	GI50 [µM]
O=C1CCCC2C(O)CCC[C@H]12 (stereo partly specified)	> 100	–
CC1(Cl)CC2OC3(Br)C=CC(C)(O)C2(CC1Br)C3(C)C (stereo unspecified)	> 100	–
CC(C)c1nc2cc(C(F)(F)F)ccc2[nH]c1=O	> 100	–
Cc1ccc(N=NC2S/C(=C(\C#N)c3nc4ccccc4[nH]3)N(c3ccccc3)C2=O)cc1 (stereo unspecified)	> 100	–
N/C(=C\C(=O)n1nc(-c2ccccc2)cc1N)c1ccccc1	28.5	5.26
N/C(=N\S(=O)(=O)c1cccc2nsnc12)Nc1ccc(Cl)cc1	> 100	–
Nc1ncnc2c1ncn2Cc1ccc(C23CC4CC(CC(C4)C2)C3)c(OCc2cc(F)c(F)cc2F)c1	> 100	9.23
C/C=C/C1=C(Cl)C(=O)[C@@H](Cl)[C@@]1(O)C(=O)OC	34.8	–
COc1cccc(C2C3=C(COC3=O)N(CCO)c3cc(OC)ccc32)c1 (stereo unspecified)	> 100	0.468
CC(=O)NNc1nc(C)c(C(/C=C/c2ccc([N+](=O)[O-])cc2)=N/N)s1	> 100	–
O=C(C=Nc1ccccc1C(=O)[O-])c1cccs1.O=C(C=Nc1ccccc1C(=O)[O-])c1cccs1.[Co+2]	> 100	–
COc1cc(/C=C2/SC(c3ccccc3)N(c3cccc(Cl)c3)C2=O)cc(OC)c1OC (stereo unspecified)	> 100	–
COC(=O)C1CCOC(C)N1C(=O)OC(C)(C)C (stereo unspecified)	> 100	–
O=C(Nc1ccccc1)c1nn(-c2cc(S(=O)(=O)O)c([N+](=O)[O-])cc2Cl)[n+](-c2cc(S(=O)(=O)[O-])c([N+](=O)[O-])cc2Cl)n1	> 100	–
CCCCCCNC(=O)c1cc(CCc2cc(O)ccc2O)ccc1O	26	–
CCCCOc1ccc(NC(=O)n2nc(N)c3ccccc32)cc1	> 84.9	24.4
CC1=C(/C=C/C(=O)O)C(C)(C)CCC1	> 100	–
O=C1Cc2c([nH]c3c(Cl)cccc23)-c2ccccc2N1	> 100	–
CS(=O)(=O)OCC1OC(n2ccc(NC(=O)c3ccccc3)nc2=O)CC1OS(C)(=O)=O (stereo unspecified)	> 100	–
CC(=O)Nc1ccc(N=C2C(c3ccccc3)=C(SC3=C(c4ccccc4)C(=Nc4ccc(NC(C)=O)cc4)c4ccccc43)c3ccccc32)cc1	> 100	–
O=c1[nH]cnc2c1sc1nc3ccccc3n12	> 100	–
Cc1c(C#N)c2ccccc2c2nc3ccccc3n12	> 100	–
CSc1cccc(-n2c3nc(=O)n(C)c(=O)c-3nc3ccccc32)c1	23.2	–
Cc1noc2cccc(OCc3ccccc3)c12	> 100	–
Nc1ccc(-c2cssc2=S)cc1	> 100	–

Compound	TGI [µM]	GI50 [µM]
Cc1cc(NS(=O)(=O)c2ccc(NC(=O)c3ccc4[nH]c5ccccc5c(=O)c4c3)cc2)no1	> 100	–
O=C1C2C(C(=O)[N]1[Hg][c]1cccs1)C1(Cl)C(Cl)=C(Cl)C2(Cl)C1(Cl)Cl (stereo unspecified)	15.9	4
Cn1ccnc1C(=O)/C=C/c1ccc(C(=O)Nc2ccc(S(F)(F)(F)(F)F)cc2)cc1	> 14.3	3.2
CC(=O)Oc1c(C)c2c(O)c3c1C1=C(OCOC1=C(C)C3=O)/C(C)=C\C(C)(O)C(O)C(C)C(O)C1C(=O)OC(C(C)C1O)C(C)(O)/C=C/C=C(C)C(=O)N2 (stereo unspecified)	> 100	–
COc1ccc(/C(Cl)=C(/c2ccc(O)cc2)c2ccc(OCCN(C)C)cc2)cc1	23.5	–
CN(C)Cc1cc(N=Nc2cccc(Cl)c2)ccc1O	61.6	–
CC/C(=C(/c1ccc(OCCN(C)C)cc1)c1ccc(OC(=O)CCC(=O)c2c(C)[nH]c(/C=C3\N=C(c4ccc[nH]4)C=C3OC)c2C)cc1)c1ccccc1	25.7	11.5
COC(=O)CC1C(COC(C)=O)OC(n2cc(C)c(=O)[nH]c2=O)C1OC(C)=O (stereo unspecified)	> 100	–
COP(=O)(Cc1ccc(/C=C/C#N)o1)OC	> 100	–
COc1ccc(/C=C/c2sc3ccccc3[n+]2CCCCI)cc1OC	> 10	–
COCO[C@@H]1C[C@H]2C(=O)N(COC)c3ccccc3C(=O)N2C1	> 100	–
O=c1cc(-c2ccc(O)cc2)n(C2CC2)c2ccccc12	6.92	–
CCN(CC)CCCC(C)Nc1ccnc2cc3ccccc3cc12 (stereo unspecified)	8.95	–
O=C1[C@@H]2C(c3ccc(Cl)cc3Cl)=NO[C@@H]2C(=O)N1c1ccc(Cc2ccc(N3C(=O)[C@H]4C(c5ccc(Cl)cc5Cl)=NO[C@H]4C3=O)cc2)cc1	> 100	–
N#CC1Cc2cc3c(cc21)OCO3 (stereo unspecified)	> 100	–
C/C=C1/CN2CCc3c([nH]c4ccccc34)[C@@H]2C[C@@H]1Cc1[nH]ccc2c1[nH]c1cc(=O)ccc12	3.44	–
CCCc1cc(O)c2c3c(c(=O)oc2c1)CN(C)CC3	> 100	> 100
CN(C)CCN(C)CC1COC(C)(C)O1 (stereo unspecified)	> 100	–
COc1ccccc1/C=C(\C#N)C(=O)c1ccccc1	> 100	–
Nc1ccccc1-c1ccc([N+](=O)[O-])cc1	> 100	89.4
COc1cc(-n2cc(-c3ccc(F)cc3)nc2SCc2ccccc2)cc(OC)c1OC	> 100	> 100
Oc1ccc(CN2CCC(N3CCOCC3)CC2)c2cccnc12	> 100	24.9
Cc1nc2ccc(Cl)cc2c2c1CCS2	> 100	–
O=C(NCCCCN(CCCNC(=O)C(F)(F)F)Cc1ccc2ccccc2c1)C(F)(F)F	41.4	–
CCCN1CC=C(c2cc(C(=O)OCC)[nH]c2-c2cc(C)no2)C1=O	> 100	–

Compound	TGI [µM]	GI50 [µM]
CCOC(=O)c1sc2ncn(Cc3cccc(Br)c3)c(=O)c2c1C	> 100	23.1
CN(C)c1nc2oc(-c3ccccc3)c(-c3ccccc3)c2c2nncn12	> 100	–
O=C(N/N=C(/COc1ccc(Cl)cc1)N=Cc1cccnc1)c1ccncc1	> 100	–
O=c1cc(-c2ccccc2)oc2cc(O)c(O)c(O)c12	31	8.89
Nc1cc2c(nnn2C2OC(COCc3ccccc3)C(OCc3ccccc3)C2OCc2ccccc2)c(=O)[nH]1 (stereo unspecified)	> 100	–
CCCCCc1nc2c(c3c1CCCC3)CCCC2	49.7	12.6
O=c1[nH]c2ccc(Cl)cc2c2oc(-c3ccccc3)nc12	50.7	–
C1=Nc2ccc(cc2)N=Cc2ccc(cc2)OCc2cccc(n2)COc2ccc1cc2	> 100	–
O=C1N(c2ccccc2)C2(c3ccccc3)CC3CCCC13S2 (stereo unspecified)	> 100	–
CC(C)(C)OC(=O)NCC(=O)NC1c2ccsc2/C(=N/O)[C@H]1O (stereo partly specified)	> 100	–
Cc1ccc(NP(=O)(Oc2ccccc2)N(CCCl)CCCl)cc1 (stereo unspecified)	> 100	–
N#Cc1c(NC(=S)Nc2ccc(Cl)cc2)sc2c1CCCC2	> 100	–
OC1(c2ccc(Cl)cc2)c2c(ccc3c2OCO3)C2=NCCN21 (stereo unspecified)	54.1	–
O=C1CC(c2cccc(O)c2)C2(C(=O)NC(=S)NC2=O)C(c2cccc(O)c2)C1 (stereo unspecified)	> 100	> 100
CC(=O)N1N=C(c2ccc(Nc3nc(Nc4ccc(Cl)cc4)nc(Nc4ccc(Cl)cc4)n3)cc2)CC1c1ccc([N+](=O)[O-])cc1 (stereo unspecified)	> 100	30.8
COc1ccc2c(c1O)C13CCN(C)C(C2)C1CCC1(C3)OCCO1 (stereo unspecified)	> 100	–
N#CC(c1ccnc(Cl)n1)c1nc2ccccc2s1 (stereo unspecified)	39.3	–
COC(c1cccc(C(O)(C(F)(F)F)C(F)(F)F)c1)(C(F)(F)F)C(F)(F)F	34.9	–
O=C(c1ccco1)N(Cc1ccco1)C(=S)Nc1ccccc1	> 100	–
O=S1(=O)C(c2ccccc2)C(N2CCCCC2)C1C1CC2c3ccccc3C1c1ccccc12 (stereo unspecified)	> 100	–
Cc1nc(-c2ccccc2)c(Cc2ccccc2O)c(=O)[nH]1	> 100	–
COc1ccc(N(CN2C(=O)CCC2C(=O)O)C(C)=O)cc1 (stereo unspecified)	> 100	–
N#Cc1c2c(c(Nc3cccc(C(F)(F)F)c3)n3c1nc1ccccc13)CCC2	> 100	–
N#Cc1ncc(-c2ccc(C(F)(F)F)cc2)c(NCc2cc(C(F)(F)F)cc(C(F)(F)F)c2)n1	83.8	5.12
CN(Cc1ccc(Cl)cc1)c1ccc(CO)c(Cl)c1	20.6	6.48

Compound	TGI [µM]	GI50 [µM]
Cc1cc(Cl)cc2c(N=Nc3ccccc3[N+](=O)[O-])c(O)[nH]c12	> 100	–
Cc1cc2c(cc1Cl)SC(c1ccccc1)C(=O)NS2(=O)=O (stereo unspecified)	> 100	–
c1ccc2c(c1)sc1c3cnccc3ccc21	> 100	–
O=S(=O)(O)CCCC1S(=O)(=O)OCCOS1(=O)=O	> 100	–
CC(C)CCC[C@@H](C)[C@H]1CC[C@H]2[C@@H]3CC[C@H]4C[C@H](N)CC[C@]4(C)[C@H]3CC[C@]12C	27.1	–
O=Cc1cc([N+](=O)[O-])no1	> 100	–
COc1cc2c(cc1O)-c1c(cnn1-c1ccc([N+](=O)[O-])cc1)CCC2	61	–
O=C(C[C@H](NC(=O)OCc1ccccc1)C(=O)NC1Cc2ccccc2OC1=O)OCc1ccccc1 (stereo partly specified)	> 100	–
N#CCCN(c1ccc(/C=C2\N=C(Cc3ccccc3)OC2=O)cc1)S(=O)(=O)c1ccccc1	> 100	–
COc1cc2cc(C(=O)CCC(=O)O)sc2cc1OC	> 100	> 100
C/C=C/C/C=C/CCC(=O)[C@H]1O[C@H]1C(N)=O	30.3	15.8
Nc1nc(NCCO)c(N=O)c(=O)[nH]1	> 100	–
S=C(N/N=C(/c1ccccc1)c1ccccn1)N1CCCCC1	13.1	–
CCCCCCCc1cc(OC(=O)c2c(C)cc(OC)cc2O)cc(O)c1C(=O)O	38.8	–
N#C/C(=N\Nc1ccc(Cl)cc1)C(=O)Nc1cc(-c2ccccc2)nn1-c1ccccc1	> 100	3
O=C(Nc1ccc(F)cc1)Nc1ccccc1CNc1nc(Nc2ccc(OCCN3CCCC3)cc2)ncc1Cl	7.96	1.96
Nc1nc(N)c(Cn2ccnc2)c(=O)[nH]1	> 100	–
COc1ccc2nc3cc(Cl)ccc3c(NCCC[N+](C)(C)CCCCCCCCCCCCCCCC[N+](C)(C)CCCNc3c4ccc(Cl)cc4nc4ccc(OC)cc34)c2c1	8.18	–
COc1cc(C(=O)N2N=C(c3ccc(S(C)(=O)=O)cc3)CC2c2ccco2)cc(OC)c1OC (stereo unspecified)	> 100	12.2
CC(=O)Oc1cc(C)c2c(c1OC(C)=O)CC1(O2)[C@@H](C)CCC2[C@@]3(C)CC[C@H](OC(C)=O)C(C)(C)C3CC[C@]21C (stereo partly specified)	> 100	–
COc1cc2c(cc1OCCCCCOc1cc3c(cc1OC)C(=O)N1CC(F)C[C@H]1C=N3)N=C[C@@H]1CC(F)CN1C2=O (stereo partly specified)	1.45	0.0702
COC(=O)C(C)(C)OCc1ccc(C2NC(=O)N(c3cccc(Cl)c3)C(=O)N2c2cccc(Cl)c2)cc1 (stereo unspecified)	> 100	–
O=S(=O)(Cc1ccc(Cl)cc1Cl)c1ccc(Cl)cc1	> 42.5	1.83
Clc1cc2c(cc1Cl)Oc1cc(Cl)c(Cl)cc1O2	> 0.625	> 0.625
CC(=O)c1c(SCCN2CCCC2)n(-c2ccccc2)c(=S)n(-c2ccccc2)c1=O	55.7	–
